The other results are listed elsewhere or left out.
Columns and labels:
Test in all cases: glycan array binding signal (z-score within array); higher = stronger binding
Conditions in all cases: glycan notation: IUPAC condensed, linker removed
[1] = target: Fuc(a1-3)[Gal(b1-4)]GlcNAc(b1-3)Gal(b1-4)[Fuc(a1-3)]GlcNAc
How it was run: (§1)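 Glycan array data came from 3228 arrays in the Consortium for Functional Glycomics database, and only arrays with an available protein sequence were kept. Glycan names were put into IUPAC-condensed notation, and columns mapping to the same glycan were averaged. The binding signal is a within-array Z-score, averaged across arrays of one protein sequence run at different concentrations or buffers and across linkers. A negative Z-score can be read as non-binding.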

[2] = target: Fuc(a1-3)[Gal(b1-4)]GlcNAc(b1-3)Gal(b1-4)[Fuc(a1-3)]GlcNAc(b1-3)Gal(b1-4)[Fuc(a1-3)]GlcNAc
How it was run: as §1

[3] = target: Fuc(a1-3)[Gal(b1-4)]GlcNAc(b1-3)GalNAc
How it was run: as §1

[4] = target: Fuc(a1-3)[Gal(b1-4)]GlcNAc(b1-6)GalNAc
How it was run: as §1

[5] = target: Fuc(a1-3)[Gal(b1-4)]GlcNAc(b1-6)[Gal(b1-3)GlcNAc(b1-3)]Gal(b1-4)Glc
How it was run: as §1

[6] = target: Fuc(a1-3)[Gal(b1-4)]GlcNAc6S
How it was run: as §1

[7] = target: Fuc(a1-3)[Gal3S(b1-4)]Glc
How it was run: as §1

[8] = target: Fuc(a1-3)[Gal3S(b1-4)]GlcNAc
How it was run: as §1

[9] = target: Fuc(a1-3)[Gal3S(b1-4)]GlcNAc6S
How it was run: as §1

[10] = target: Fuc(a1-3)[GalNAc(b1-4)]GlcNAc
How it was run: as §1

[11] = target: Fuc(a1-3)[GalNAc(b1-4)]GlcNAc6S
How it was run: as §1

Fuc(a1-4)GlcNAc = target: Fuc(a1-4)GlcNAc
How it was run: as §1

Fuc(b1-3)GlcNAc = target: Fuc(b1-3)GlcNAc
How it was run: as §1

Gal(a1-2)Gal = target: Gal(a1-2)Gal
How it was run: as §1

Gal(a1-3)Gal = target: Gal(a1-3)Gal
How it was run: as §1

Gal(a1-3)Gal(b1-3)GlcNAc = target: Gal(a1-3)Gal(b1-3)GlcNAc
How it was run: as §1

[12] = target: Gal(a1-3)Gal(b1-3)GlcNAc(b1-2)Man
How it was run: as §1

[13] = target: Gal(a1-3)Gal(b1-3)GlcNAc(b1-2)Man(a1-3)[Gal(a1-3)Gal(b1-3)GlcNAc(b1-2)Man(a1-6)]Man(b1-4)GlcNAc(b1-4)GlcNAc
How it was run: as §1

[14] = target: Gal(a1-3)Gal(b1-3)GlcNAc(b1-3)GalNAc
How it was run: as §1

[15] = target: Gal(a1-3)Gal(b1-3)GlcNAc(b1-6)GalNAc
How it was run: as §1

[16] = target: Gal(a1-3)Gal(b1-3)[Fuc(a1-4)]GlcNAc(b1-2)Man(a1-3)[Gal(a1-3)Gal(b1-3)[Fuc(a1-4)]GlcNAc(b1-2)Man(a1-6)]Man(b1-4)GlcNAc(b1-4)GlcNAc
How it was run: as §1

Gal(a1-3)Gal(b1-4)Glc = target: Gal(a1-3)Gal(b1-4)Glc
How it was run: as §1

Gal(a1-3)Gal(b1-4)GlcNAc = target: Gal(a1-3)Gal(b1-4)GlcNAc
How it was run: as §1

[17] = target: Gal(a1-3)Gal(b1-4)GlcNAc(b1-2)Man
How it was run: as §1

[18] = target: Gal(a1-3)Gal(b1-4)GlcNAc(b1-2)Man(a1-3)[Gal(a1-3)Gal(b1-4)GlcNAc(b1-2)Man(a1-6)]Man(b1-4)GlcNAc(b1-4)GlcNAc
How it was run: as §1

[19] = target: Gal(a1-3)Gal(b1-4)GlcNAc(b1-3)GalNAc
How it was run: as §1

[20] = target: Gal(a1-3)Gal(b1-4)GlcNAc(b1-6)GalNAc
How it was run: as §1

[21] = target: Gal(a1-3)Gal(b1-4)[Fuc(a1-3)]GlcNAc
How it was run: as §1

[22] = target: Gal(a1-3)Gal(b1-4)[Fuc(a1-3)]GlcNAc(b1-2)Man(a1-3)[Gal(a1-3)Gal(b1-4)[Fuc(a1-3)]GlcNAc(b1-2)Man(a1-6)]Man(b1-4)GlcNAc(b1-4)GlcNAc
How it was run: as §1

Gal(a1-3)GalNAc = target: Gal(a1-3)GalNAc
How it was run: as §1

[23] = target: Gal(a1-3)[Gal(a1-4)]Gal(b1-4)GlcNAc
How it was run: as §1

[24] = target: Gal(a1-4)Gal(b1-3)GlcNAc(b1-2)Man(a1-3)[Gal(a1-4)Gal(b1-3)GlcNAc(b1-2)Man(a1-6)]Man(b1-4)GlcNAc(b1-4)GlcNAc
How it was run: as §1

Gal(a1-4)Gal(b1-4)Glc = target: Gal(a1-4)Gal(b1-4)Glc
How it was run: as §1

Gal(a1-4)Gal(b1-4)GlcNAc = target: Gal(a1-4)Gal(b1-4)GlcNAc
How it was run: as §1

[25] = target: Gal(a1-4)Gal(b1-4)GlcNAc(b1-2)Man(a1-3)[Gal(a1-4)Gal(b1-4)GlcNAc(b1-2)Man(a1-6)]Man(b1-4)GlcNAc(b1-4)GlcNAc
How it was run: as §1

[26] = target: Gal(a1-4)Gal(b1-4)GlcNAc(b1-3)Gal(b1-4)Glc
How it was run: as §1

Gal(a1-4)GlcNAc = target: Gal(a1-4)GlcNAc
How it was run: as §1

Gal(a1-6)Glc = target: Gal(a1-6)Glc
How it was run: as §1

B1: GS13686A-pdi-553-26-553 (Parabacteroides distasonis) (protein)
chain: NENPDKPTDDVNYNMNEPRLASTLRGGLIIEGNVEQRLKPLQIDFYSQMTVDGGGWGTKNYIQDDEWNNLVWEEYLKQIASINIVIRSLTEKDKDAYANTIAFARIWRVYVHTLAADKFGPMPFPAYEIVEANPPYKSLKDIYDEYFRELDAAINGFNDSAQPIFSDAGIDLIYKNDVSKWKRFANSLRLRLAVRLTEVDQEKCIAEANAAISSPAGLISDKADNAYMPPKADGSWGQDYNYTMFQITWSGPICMSKSVEKLVTNIGGVAWPQGVVNQTSGVAVSSVHPEKVDPRAPKIFQPGIENGDWKGLVYGPKAEEANTGIYQSKQCAELGFIIKDGYPYKSRPYDLFLSEEVHFLKAELYARGFIAGDAKSEYEAGVRASFATWGVTSEVDDYLTSTEKNEAGTSARYDDQQGAGNTALEKIITQKYIAGIPDLAQEGWNDKRRLNLPRLDVAVYRDQAVYNNNDKDILKSANFIKRMRYPTKESLINATEYEKGKSMLGGKGDIVSTPLWWDKNSNYCTSSK
Question: What does the source list for B1?
Answer: glycan array binding signal (z-score) [1]: -0.175; glycan array binding signal (z-score) [2]: -0.035; glycan array binding signal (z-score) [3]: -0.168; glycan array binding signal (z-score) [4]: -0.24; glycan array binding signal (z-score) [5]: 0.916; glycan array binding signal (z-score) [6]: -0.276; glycan array binding signal (z-score) [7]: -0.395; glycan array binding signal (z-score) [8]: 0.145; glycan array binding signal (z-score) [9]: -0.136; glycan array binding signal (z-score) [10]: -0.172; glycan array binding signal (z-score) [11]: 0.197; glycan array binding signal (z-score) (Fuc(a1-4)GlcNAc): 0.245; glycan array binding signal (z-score) (Fuc(b1-3)GlcNAc): -0.354; glycan array binding signal (z-score) (Gal(a1-2)Gal): 0.062; glycan array binding signal (z-score) (Gal(a1-3)Gal): -0.257; glycan array binding signal (z-score) (Gal(a1-3)Gal(b1-3)GlcNAc): -0.119; glycan array binding signal (z-score) [12]: 0.156; glycan array binding signal (z-score) [13]: 0.2; glycan array binding signal (z-score) [14]: -0.053; glycan array binding signal (z-score) [15]: -0.218; glycan array binding signal (z-score) [16]: 0.102; glycan array binding signal (z-score) (Gal(a1-3)Gal(b1-4)Glc): -0.06; glycan array binding signal (z-score) (Gal(a1-3)Gal(b1-4)GlcNAc): -0.128; glycan array binding signal (z-score) [17]: -0.324; glycan array binding signal (z-score) [18]: -0.004; glycan array binding signal (z-score) [19]: -0.168; glycan array binding signal (z-score) [20]: -0.447; glycan array binding signal (z-score) [21]: 0.829; glycan array binding signal (z-score) [22]: 0.196; glycan array binding signal (z-score) (Gal(a1-3)GalNAc): -0.14; glycan array binding signal (z-score) [23]: -0.185; glycan array binding signal (z-score) [24]: 0.371; glycan array binding signal (z-score) (Gal(a1-4)Gal(b1-4)Glc): -0.1; glycan array binding signal (z-score) (Gal(a1-4)Gal(b1-4)GlcNAc): -0.048; glycan array binding signal (z-score) [25]: -0.062; glycan array binding signal (z-score) [26]: -0.28; glycan array binding signal (z-score) (Gal(a1-4)GlcNAc): 0.048; glycan array binding signal (z-score) (Gal(a1-6)Glc): 0.108

Source: the supplement of paper PMC8728848
